# Over roughly 33,000 sequences, “E-score (-0.5 to 0.5)” has its median near -0.036; the highest 2% begin near 0.37. This is one part of the list.
# Target: T1, Yer064c (UniProt P40041)
# T1 sequence: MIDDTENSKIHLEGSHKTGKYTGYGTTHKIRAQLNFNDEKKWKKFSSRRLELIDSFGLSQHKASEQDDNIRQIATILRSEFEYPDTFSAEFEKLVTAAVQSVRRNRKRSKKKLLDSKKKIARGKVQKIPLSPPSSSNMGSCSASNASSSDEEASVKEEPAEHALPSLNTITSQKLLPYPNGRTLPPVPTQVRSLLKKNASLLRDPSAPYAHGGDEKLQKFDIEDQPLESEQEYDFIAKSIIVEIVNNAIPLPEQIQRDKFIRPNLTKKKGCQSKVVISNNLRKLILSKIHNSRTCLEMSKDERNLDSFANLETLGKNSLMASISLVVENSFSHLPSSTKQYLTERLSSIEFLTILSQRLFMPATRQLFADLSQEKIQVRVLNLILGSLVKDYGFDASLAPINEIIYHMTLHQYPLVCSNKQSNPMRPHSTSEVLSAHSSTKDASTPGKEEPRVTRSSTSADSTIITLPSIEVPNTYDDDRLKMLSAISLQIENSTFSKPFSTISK
# Test: PBM E-score (8-mer binding enrichment) (E-score (-0.5 to 0.5)); higher = stronger / more preferred TF binding; most listed sequences are background and not binding sites
# Conditions: protein concentration: 200 nM; construct: GST-full length
# Outline: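 Masliner-normalised scans of fluorescent anti-GST signal were the basis for scoring. That signal came from GST-tagged yeast transcription factors applied at about 100-200 nM to double-stranded universal all-10-mer Agilent arrays on fresh or once-stripped slides. Each ungapped eight-base word, pooled with its reverse complement, received an E-score from the Universal PBM Analysis Suite.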
row,Sequence,PBM E-score
1,CGAGGCAA,-0.114
2,CGAATAAA,-0.168
3,TCACTCGA,0.225
4,ATCGGTAA,0.0956
5,AGGCACAG,-0.0793
6,AGCCTTGA,0.116
7,AGTTGCTA,-0.121
8,CAGACACA,0.0787
9,CACGGGCG,-0.187
10,CTAGGGTC,-0.251
11,AACACCAT,-0.0344
12,ACAAAAAT,0.113
13,ATCTTAGC,0.043
14,AGAAGTGA,0.0848
15,CGGCGTAC,-0.0619
16,GCATTAAA,0.0123
17,AACGCAAA,-0.0149
18,ATAACGCG,0.00405
19,CCGAAGGC,-0.183
20,ACTACTCG,0.236
21,GATAGCGC,-0.282
22,AGATGGCC,-0.16

row,Sequence,PBM E-score
1,GGATGAAA,-0.0892
2,CTTCTAGC,-0.213
3,CATGGAAC,0.0128
4,CTCAAGAA,0.0322
5,CCACTGCC,-0.0194
6,AAGCCGCC,-0.179
7,AGAGTACC,0.0405
8,ACTAAGGG,0.206
9,AGCAGTTA,0.0388
10,CTTCTCTA,-0.0864
11,AATACCTC,-0.0149
12,GATCTGCA,0.0135
13,TAATTTAA,0.0979
14,AGAACCAT,0.173
15,CATAGTCC,0.304
16,TCTTCTAA,0.129
17,ACGCAAGC,-0.0709
18,ATGATCAC,0.301
19,ACCCGCAG,0.0055
20,AAACCTAC,-0.174
21,CACCGTGA,0.0835
22,ACGCCGCT,-0.119

row,Sequence,PBM E-score
1,GGTCATTA,-0.0121
2,AACATATT,-0.0685
3,ACGGAAGT,0.0358
4,CGGATGTC,-0.107
5,ACATCAGG,-0.144
6,CCGTCACC,-0.189
7,ATGCCATA,-0.218
8,AACGTTCT,-0.0715
9,AGAGGGCT,-0.315
10,ATTTAGGG,-0.0441
11,AGGATACT,-0.164
12,ACGCATTA,0.0852
13,AGAATAGA,0.0419
14,ACCAGCAT,-0.0398
15,TCAGTTCA,0.0883
16,ATTGTTTG,0.145
17,TGGGCACA,-0.204
18,ATGGGCAA,-0.028
19,AAGGTAAC,-0.0984
20,ACTTGCAA,0.129
21,AACCCTGT,-0.166
22,GTGTGAAC,-0.00276

row,Sequence,PBM E-score
1,GATTGCTA,0.0989
2,AGCCCTTG,-0.16
3,TAGATCGA,-0.0873
4,GGGAGAAC,-0.314
5,CCGATGGC,-0.113
6,CACTATCC,-0.196
7,AAAAAAGC,0.0629
8,GATCGGCA,-0.311
9,CGCGACCC,-0.0841
10,CAATTCTG,-0.197
11,TGCTAAAA,-0.0598
12,TCGACAGA,-0.0539
13,AATGGTCA,0.137
14,GCTGAATA,0.0545
15,ATAATTTA,0.167
16,AGAAGACT,0.368
17,ACGTCCAG,-0.27
18,CATTTGCG,-0.101
19,ATCCCTCA,-0.155
20,AATACTCT,0.0892

# From the supplement of paper PMC3334620
